From the supplement of paper PMC3334620
The full ranking holds about 33,000 sequences; the median of “E-score (-0.5 to 0.5)” is about -0.043, and the highest 2% start at about 0.37. This is one part of the list.

Biological target: T1, Upc2 (UniProt Q12151)
T1 sequence: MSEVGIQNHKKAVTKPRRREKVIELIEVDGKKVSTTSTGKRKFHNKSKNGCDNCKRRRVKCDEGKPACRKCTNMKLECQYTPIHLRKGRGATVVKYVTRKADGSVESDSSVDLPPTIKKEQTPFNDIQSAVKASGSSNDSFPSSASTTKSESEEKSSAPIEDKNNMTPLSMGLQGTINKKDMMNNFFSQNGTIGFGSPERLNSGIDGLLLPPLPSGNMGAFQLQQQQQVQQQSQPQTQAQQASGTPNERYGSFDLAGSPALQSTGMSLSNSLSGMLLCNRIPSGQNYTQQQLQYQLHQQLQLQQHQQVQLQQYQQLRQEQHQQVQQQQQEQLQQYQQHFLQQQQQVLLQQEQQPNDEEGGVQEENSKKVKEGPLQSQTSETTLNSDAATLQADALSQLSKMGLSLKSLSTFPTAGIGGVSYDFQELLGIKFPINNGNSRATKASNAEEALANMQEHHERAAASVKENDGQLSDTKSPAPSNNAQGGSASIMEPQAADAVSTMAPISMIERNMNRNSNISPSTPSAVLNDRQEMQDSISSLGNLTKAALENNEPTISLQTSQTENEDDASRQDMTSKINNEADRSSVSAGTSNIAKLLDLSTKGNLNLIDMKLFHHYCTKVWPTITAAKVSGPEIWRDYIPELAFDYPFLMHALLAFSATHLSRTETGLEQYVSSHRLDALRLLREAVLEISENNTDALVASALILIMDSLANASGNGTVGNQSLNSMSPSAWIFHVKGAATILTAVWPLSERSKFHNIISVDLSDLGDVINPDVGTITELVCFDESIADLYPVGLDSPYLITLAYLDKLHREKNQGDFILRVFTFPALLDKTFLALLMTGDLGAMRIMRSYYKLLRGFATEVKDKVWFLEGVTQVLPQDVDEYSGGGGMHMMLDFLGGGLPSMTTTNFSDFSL
Experiment: PBM E-score (8-mer binding enrichment) (E-score (-0.5 to 0.5)); higher = stronger / more preferred TF binding; most listed sequences are background and not binding sites
Details: protein concentration: 200 nM; construct: GST-full length
Experimental: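 Universal 'all 10-mer' protein binding microarrays (Agilent AMADID 015681) probed with GST-tagged S. cerevisiae TFs (full-length or DBD) made by in vitro transcription/translation (PURExpress), about 100-200 nM. Bound TF was detected with fluorescent anti-GST. Each ungapped 8-mer (which stands for itself and its reverse complement) is scored by the PBM enrichment score (E-score), a modified Wilcoxon-Mann-Whitney statistic from -0.5 to +0.5, computed with the Universal PBM Analysis Suite. Scale: above 0.35 generally sequence-specific binding.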

| Sequence | PBM E-score |
| --- | --- |
| CACCCATC | -0.0809 |
| CTATAAAG | -0.2 |
| GATTTGCC | 0.00332 |
| TCAACTCA | -0.155 |
| GAGCCAAA | -0.162 |
| AATCAGGT | -0.0117 |
| AATCTCCC | -0.169 |
| AAGTTCAA | 0.0109 |
| AGCTACCA | -0.126 |
| AGTTTGGA | -0.014 |
| AAAATATA | 0.0385 |
| ATGCAAGG | -0.11 |
| CCCTTTGA | -0.304 |
| GCCGCACA | -0.0824 |
| ATATAACC | 0.118 |
| AAACCTAG | -0.0476 |
| GCAGCCCA | -0.13 |
| TAGGGACA | -0.217 |
| GGAAGAAA | -0.136 |
| AAGAAGGG | -0.0551 |
| GCCAGGAC | -0.212 |
| AATACGAA | 0.424 |
| CATTTAGC | -0.0255 |
| GTAGAAGA | -0.0124 |
| CCGCCCTA | -0.266 |

| Sequence | PBM E-score |
| --- | --- |
| GAAGAGAC | 0.031 |
| AACAGCTA | -0.193 |
| CACAACCC | -0.0428 |
| AGCGTGCG | 0.0869 |
| CCATATAA | 0.144 |
| ACGCCGAT | -0.0392 |
| AGCCAACT | -0.272 |
| GAGCGTAA | 0.185 |
| GGAAGACC | -0.169 |
| AACTGATT | -0.0765 |
| CACATAAG | -0.00689 |
| GCAAAGGC | -0.0992 |
| CACCGGGA | -0.188 |
| AGTATACT | 0.242 |
| ATTAGAAA | 0.0638 |
| TAATGATA | 0.171 |
| GGTGCCAC | -0.162 |
| AAAATGAT | 0.0942 |
| CTTTCCCA | -0.288 |
| ACGCTCTA | -0.0572 |
| CGCTGCGA | 0.0835 |
| AGCGTAAC | 0.219 |
| GACGAGTC | 0.0657 |
| CCGTTACG | 0.36 |
| AAAGTTGG | -0.137 |

| Sequence | PBM E-score |
| --- | --- |
| AATCTGCT | -0.138 |
| AGGTTGCC | -0.356 |
| AGGCACCT | -0.367 |
| CCTGGCCC | -0.203 |
| CTCAATCA | -0.153 |
| ACGTAACG | 0.268 |
| CTAAGTAA | -0.0347 |
| AGCGCAAG | -0.129 |
| CTCCGTCA | -0.233 |
| AGTGGGTC | -0.234 |
| ACTAATAT | 0.0386 |
| AACGCAAC | 0.141 |
| ATCGGTCG | 0.197 |
| GGTCTACA | -0.222 |
| AAAGCTCG | 0.209 |
| GTAAATGA | 0.146 |
| ATTCGGAC | 0.0896 |
| GGCACCAA | -0.0665 |
| GATGTAGA | -0.229 |
| ACATGAAA | -0.111 |
| CATATGGC | 0.0724 |
| CAGATGGC | -0.0004 |
| GGTCACTA | -0.113 |
| GTTGGTGA | 0.101 |
| ATTTGAGG | -0.127 |

| Sequence | PBM E-score |
| --- | --- |
| AATTACAT | 0.163 |
| CGGGACAA | -0.166 |
| AAATGTGC | 0.0298 |
| TGCGACCA | 0.0986 |
| GGCTCCGA | -0.194 |
| CAGGGAAC | 0.0954 |
| AAGAACCA | 0.132 |
| AATACGCT | 0.212 |
| AATTCAGT | -0.199 |
| AGCCAAAG | -0.193 |
| CGTGCAGA | 0.0495 |
| CCGTGTGA | -0.0414 |
| TCTCGGAA | 0.098 |
| AATTAAGG | -0.174 |
| CATTCGAG | 0.0954 |
| GTCGATAA | -0.0403 |
| AGATGGAC | -0.0857 |
| AAAGAAGT | -0.0114 |
| ACTGAGCA | -0.0623 |
| CAACTTGA | -0.046 |
| ATGGGGGA | -0.191 |
| GACTCATC | -0.154 |
| CAGGTGCC | -0.347 |
| ACGCACGG | 0.0208 |
| ATTCGGTA | 0.211 |

| Sequence | PBM E-score |
| --- | --- |
| AAACCTAA | 0.057 |
| ACAGGAAG | -0.188 |
| GAAGAACA | -0.132 |
| GAAGATTA | -0.101 |
| AACGAATT | 0.378 |
| TCATCACA | -0.0744 |
| ACACAGCT | -0.0599 |
| TAGGTGCA | -0.194 |
| CCAACAAA | 0.0592 |
| CATTGCAG | -0.141 |
| CGACGGTA | 0.238 |
| AGTTGACC | -0.0877 |
| CCAGAGAC | -0.123 |
| GATTTCTA | -0.0152 |
| GCTAACCC | -0.121 |
| CCCAGCAA | 0.0851 |
| ATAGCTAG | -0.148 |
| CGAGAGGA | 0.171 |
| GTCAAGGA | -0.262 |
| CAACGCTA | -0.198 |
| CTTTGGGC | -0.215 |
| CGCAACCA | -0.126 |
| ACGAATGG | 0.259 |
| AATGCGCT | -0.0343 |
| GATGAGCC | -0.124 |

| Sequence | PBM E-score |
| --- | --- |
| CACGGGTC | -0.082 |
| CGCCCCTC | -0.0285 |
| GGATTCCA | -0.0552 |
| GACGGTAC | 0.201 |
| CACCATGA | -0.165 |
| ATCACATA | 0.133 |
| CAGATCTA | -0.104 |
| ATGCAACG | 0.113 |
| AGGTATGA | -0.0712 |
| ACAACGTC | 0.0186 |
| GGCTTCCA | -0.329 |
| ATGATAAC | 0.0913 |
| CCGCTTTA | 0.127 |
| GCCCGAAA | 0.191 |
| ATAGATTA | 0.0552 |
| CATCGCAG | -0.104 |
| GCCGTCCA | -0.146 |
| AGACGCTG | -0.221 |
| GGGTGTTA | -0.16 |
| ATGACCGC | -0.213 |
| CTTTCCGA | 0.00625 |
| CGCGAACA | 0.142 |
| AATTGCTC | -0.122 |
| ACTGATCA | -0.157 |
| CACATTCG | 0.188 |

| Sequence | PBM E-score |
| --- | --- |
| ATTACCGA | 0.182 |
| AGTCCACG | -0.0933 |
| ATCGGTGA | 0.0867 |
| AGATTATC | -0.102 |
| AATGCTCA | -0.187 |
| CCGTTATC | -0.0315 |
| AGCGAAGG | 0.11 |
| CTCCCTAA | -0.00538 |
| GACGGAGC | -0.206 |
| ACAATCAA | 0.00599 |
| CCCTAGCG | -0.418 |
| AACGACAA | 0.402 |
| AAATGATG | 0.0371 |
| AATGTACT | -0.0221 |
| CTAGTCCC | -0.181 |
| TGACGGCA | -0.128 |
| CAACAGAC | -0.0636 |
| CAGAAAAC | 0.0505 |
| ACGGCTCG | 0.268 |
| GTCAACAC | -0.0877 |
| CAGCTGTA | -0.0208 |
| CACCGGTA | 0.0555 |
